From publication PMC8726484
No constants are given. Whether binding was seen depends on the method and setting. In cells and extracts the contact can be indirect. Some results given as binding are weak or reduced against the parent protein; the word gives no strength.

Amino acid sequences for entries named in this document (tags omitted).
UniProt Q923J1: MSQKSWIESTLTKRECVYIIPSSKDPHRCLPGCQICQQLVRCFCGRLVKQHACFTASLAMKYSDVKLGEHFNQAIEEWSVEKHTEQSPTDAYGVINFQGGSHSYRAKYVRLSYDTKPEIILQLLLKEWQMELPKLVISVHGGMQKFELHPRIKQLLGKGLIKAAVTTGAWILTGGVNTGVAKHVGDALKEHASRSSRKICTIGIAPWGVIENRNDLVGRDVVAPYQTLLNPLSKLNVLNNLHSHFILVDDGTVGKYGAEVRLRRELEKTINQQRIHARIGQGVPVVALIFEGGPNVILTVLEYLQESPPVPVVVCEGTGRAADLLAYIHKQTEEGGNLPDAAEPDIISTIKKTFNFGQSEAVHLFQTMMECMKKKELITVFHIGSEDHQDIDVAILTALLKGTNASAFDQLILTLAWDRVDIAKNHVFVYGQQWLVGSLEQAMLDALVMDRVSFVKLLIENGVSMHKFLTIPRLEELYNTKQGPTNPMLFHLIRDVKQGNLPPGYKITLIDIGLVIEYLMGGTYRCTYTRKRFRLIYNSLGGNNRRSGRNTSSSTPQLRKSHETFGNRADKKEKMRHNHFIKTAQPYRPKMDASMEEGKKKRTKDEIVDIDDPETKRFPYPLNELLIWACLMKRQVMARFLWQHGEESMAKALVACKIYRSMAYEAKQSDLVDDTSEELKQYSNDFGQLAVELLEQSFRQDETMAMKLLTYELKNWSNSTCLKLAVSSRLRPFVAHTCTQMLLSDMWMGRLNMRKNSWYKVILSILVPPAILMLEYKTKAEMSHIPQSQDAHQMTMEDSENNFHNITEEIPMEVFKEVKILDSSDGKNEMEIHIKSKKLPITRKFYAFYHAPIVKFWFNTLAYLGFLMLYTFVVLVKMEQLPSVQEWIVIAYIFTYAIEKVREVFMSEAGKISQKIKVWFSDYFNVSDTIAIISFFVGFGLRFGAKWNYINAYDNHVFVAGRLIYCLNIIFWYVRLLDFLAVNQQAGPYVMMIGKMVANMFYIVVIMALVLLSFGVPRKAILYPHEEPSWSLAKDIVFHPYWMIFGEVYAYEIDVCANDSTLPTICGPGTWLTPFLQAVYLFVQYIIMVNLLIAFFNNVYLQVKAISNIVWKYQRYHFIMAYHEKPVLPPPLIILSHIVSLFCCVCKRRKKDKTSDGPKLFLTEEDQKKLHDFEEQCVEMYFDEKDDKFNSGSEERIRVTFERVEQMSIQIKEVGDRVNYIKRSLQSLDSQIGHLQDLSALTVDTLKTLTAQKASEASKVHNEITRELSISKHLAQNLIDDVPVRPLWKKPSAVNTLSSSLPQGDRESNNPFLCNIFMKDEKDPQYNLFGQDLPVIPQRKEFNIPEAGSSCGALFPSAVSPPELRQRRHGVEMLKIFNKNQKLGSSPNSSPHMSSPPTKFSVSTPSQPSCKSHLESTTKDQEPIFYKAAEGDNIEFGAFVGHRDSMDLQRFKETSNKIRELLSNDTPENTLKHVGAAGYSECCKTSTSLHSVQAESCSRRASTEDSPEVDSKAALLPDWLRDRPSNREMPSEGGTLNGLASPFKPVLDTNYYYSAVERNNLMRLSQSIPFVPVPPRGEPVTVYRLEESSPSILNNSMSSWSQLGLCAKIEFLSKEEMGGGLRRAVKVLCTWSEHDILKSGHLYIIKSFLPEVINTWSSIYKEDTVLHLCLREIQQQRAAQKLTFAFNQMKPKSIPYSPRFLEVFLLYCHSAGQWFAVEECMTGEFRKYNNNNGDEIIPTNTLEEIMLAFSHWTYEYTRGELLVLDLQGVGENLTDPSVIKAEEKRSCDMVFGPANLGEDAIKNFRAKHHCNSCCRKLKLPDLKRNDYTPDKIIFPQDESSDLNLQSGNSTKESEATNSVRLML
UniProt Q9BX84: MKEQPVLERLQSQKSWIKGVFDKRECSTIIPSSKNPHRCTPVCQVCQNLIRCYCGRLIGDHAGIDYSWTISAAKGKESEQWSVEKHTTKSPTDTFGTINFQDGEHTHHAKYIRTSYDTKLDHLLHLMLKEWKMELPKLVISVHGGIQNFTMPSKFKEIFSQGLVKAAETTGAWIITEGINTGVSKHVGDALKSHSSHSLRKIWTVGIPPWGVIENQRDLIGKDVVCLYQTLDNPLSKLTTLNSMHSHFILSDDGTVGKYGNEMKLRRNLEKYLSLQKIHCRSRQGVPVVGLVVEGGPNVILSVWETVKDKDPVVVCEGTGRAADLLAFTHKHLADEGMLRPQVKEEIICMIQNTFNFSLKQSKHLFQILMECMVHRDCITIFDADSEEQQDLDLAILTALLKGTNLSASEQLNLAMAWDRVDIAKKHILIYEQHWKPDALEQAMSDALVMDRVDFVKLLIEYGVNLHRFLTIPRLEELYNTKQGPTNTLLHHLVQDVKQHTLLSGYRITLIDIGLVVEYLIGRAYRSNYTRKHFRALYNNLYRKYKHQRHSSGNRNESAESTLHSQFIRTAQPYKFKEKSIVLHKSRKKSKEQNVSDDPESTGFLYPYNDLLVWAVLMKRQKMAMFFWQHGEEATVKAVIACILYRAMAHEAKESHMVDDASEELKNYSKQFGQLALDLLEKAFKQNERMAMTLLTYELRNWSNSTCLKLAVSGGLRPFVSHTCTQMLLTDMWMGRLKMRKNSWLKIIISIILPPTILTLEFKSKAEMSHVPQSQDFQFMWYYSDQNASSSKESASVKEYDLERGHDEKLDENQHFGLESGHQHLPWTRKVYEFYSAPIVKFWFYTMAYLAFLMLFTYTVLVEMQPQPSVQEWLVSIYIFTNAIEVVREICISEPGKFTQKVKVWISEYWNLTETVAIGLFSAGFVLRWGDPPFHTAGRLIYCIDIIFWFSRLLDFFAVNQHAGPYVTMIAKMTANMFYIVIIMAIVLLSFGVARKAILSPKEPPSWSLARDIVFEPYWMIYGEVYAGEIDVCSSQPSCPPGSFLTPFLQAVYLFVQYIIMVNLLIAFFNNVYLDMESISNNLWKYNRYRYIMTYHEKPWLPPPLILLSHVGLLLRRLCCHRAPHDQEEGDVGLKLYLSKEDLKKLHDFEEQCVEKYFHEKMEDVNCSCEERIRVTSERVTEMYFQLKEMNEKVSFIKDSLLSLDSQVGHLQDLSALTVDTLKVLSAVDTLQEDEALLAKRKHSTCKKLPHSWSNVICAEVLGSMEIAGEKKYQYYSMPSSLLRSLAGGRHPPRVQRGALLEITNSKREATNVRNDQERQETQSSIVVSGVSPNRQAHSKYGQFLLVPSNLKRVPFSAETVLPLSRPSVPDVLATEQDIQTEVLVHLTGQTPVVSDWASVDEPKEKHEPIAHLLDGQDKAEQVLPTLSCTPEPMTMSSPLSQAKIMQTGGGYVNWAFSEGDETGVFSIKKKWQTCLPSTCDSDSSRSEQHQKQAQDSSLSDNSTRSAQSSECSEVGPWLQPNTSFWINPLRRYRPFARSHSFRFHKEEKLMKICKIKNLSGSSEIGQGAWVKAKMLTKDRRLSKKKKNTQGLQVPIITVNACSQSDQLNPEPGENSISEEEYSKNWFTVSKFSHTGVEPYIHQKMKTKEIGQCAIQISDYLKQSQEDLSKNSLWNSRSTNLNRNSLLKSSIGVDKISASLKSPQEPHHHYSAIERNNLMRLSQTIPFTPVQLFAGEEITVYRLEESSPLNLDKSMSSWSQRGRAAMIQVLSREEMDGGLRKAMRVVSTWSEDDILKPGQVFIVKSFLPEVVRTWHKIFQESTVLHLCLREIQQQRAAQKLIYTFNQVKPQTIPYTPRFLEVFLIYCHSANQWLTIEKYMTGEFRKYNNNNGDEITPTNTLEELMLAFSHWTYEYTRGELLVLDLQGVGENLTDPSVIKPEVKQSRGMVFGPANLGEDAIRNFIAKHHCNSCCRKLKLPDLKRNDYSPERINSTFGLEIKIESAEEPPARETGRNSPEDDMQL
UniProt Q9NRU3: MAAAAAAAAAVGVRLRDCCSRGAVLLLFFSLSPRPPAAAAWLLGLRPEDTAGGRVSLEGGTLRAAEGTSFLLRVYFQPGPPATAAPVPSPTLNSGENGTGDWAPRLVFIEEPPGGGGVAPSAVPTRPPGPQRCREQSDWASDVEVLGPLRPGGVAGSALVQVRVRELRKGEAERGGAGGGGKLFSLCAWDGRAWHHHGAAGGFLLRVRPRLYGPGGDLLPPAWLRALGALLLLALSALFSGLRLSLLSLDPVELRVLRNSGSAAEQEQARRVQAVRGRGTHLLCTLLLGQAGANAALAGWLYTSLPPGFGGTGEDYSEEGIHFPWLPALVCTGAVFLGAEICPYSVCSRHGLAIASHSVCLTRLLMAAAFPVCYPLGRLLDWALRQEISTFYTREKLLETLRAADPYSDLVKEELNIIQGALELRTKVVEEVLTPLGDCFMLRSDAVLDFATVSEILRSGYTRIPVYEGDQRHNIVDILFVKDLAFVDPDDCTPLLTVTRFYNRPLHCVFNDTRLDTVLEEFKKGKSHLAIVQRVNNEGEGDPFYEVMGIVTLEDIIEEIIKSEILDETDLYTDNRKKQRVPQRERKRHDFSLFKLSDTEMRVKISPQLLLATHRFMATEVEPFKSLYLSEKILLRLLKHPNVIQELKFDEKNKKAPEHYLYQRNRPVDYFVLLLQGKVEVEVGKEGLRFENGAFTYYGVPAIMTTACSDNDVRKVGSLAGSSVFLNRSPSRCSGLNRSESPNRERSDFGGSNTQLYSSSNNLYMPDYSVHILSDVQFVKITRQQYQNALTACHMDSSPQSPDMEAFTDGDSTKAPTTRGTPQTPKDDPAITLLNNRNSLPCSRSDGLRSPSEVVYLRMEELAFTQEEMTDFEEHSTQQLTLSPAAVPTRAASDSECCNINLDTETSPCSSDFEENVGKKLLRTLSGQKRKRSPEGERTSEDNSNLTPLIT

Assays:
[1] = molecular target: HA-tagged TRPM7 (pcDNA5-FRT-TO-HA-TRPM7) (mouse) (UniProt Q923J1); assay: co-IP; HA-tagged channel coexpressed with FLAG-tagged CNNM1-4 in HEK-293T cells, immunoprecipitated overnight with HA-agarose; lysis buffer 50 mM TRIS (pH 7.4), 150 mM NaCl, 1% Igepal 630, 4°C; growth medium with or without 20 mM MgCl2 (Fig 1A)
[2] = molecular target: HA-TRPM6 (pcDNA5-FRT-TO-HA-TRPM6) (UniProt Q9BX84); assay: as above

Substance: FLAG-tagged human CNNM1 (pCMV-4A) (from UniProt Q9NRU3 1-951)
- binding [1]: binds
- binding [2]: binds
